According to the supplement of paper PMC4166925:
± gives the standard deviation of the averaged measurements. Over roughly 33,000 sequences, “E-score (dimensionless, -0.5 to 0.5)” has its median near -0.046; the highest 2% begin near 0.36. The list shows a part of the results.

Tested on: T1, SpTbr T-box DNA-binding domain (GST fusion)
T1 sequence: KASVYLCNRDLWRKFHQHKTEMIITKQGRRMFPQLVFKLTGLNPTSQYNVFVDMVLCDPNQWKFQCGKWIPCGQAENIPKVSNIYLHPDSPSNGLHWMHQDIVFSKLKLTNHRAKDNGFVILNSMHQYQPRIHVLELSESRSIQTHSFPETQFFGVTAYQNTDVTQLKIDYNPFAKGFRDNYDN
Assay: PBM E-score of 8-mer (E-score (dimensionless, -0.5 to 0.5)); Tbr is Tbrain of the sea star Patiria miniata (Pm) or the sea urchin Strongylocentrotus purpuratus (Sp); higher = stronger binding preference; most listed sequences are background and not binding sites
Settings: the construct has about 5 more residues each side
Procedure, shortened: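 Expression of GST-fused Tbr T-box DNA-binding domains, each holding the full T-box plus roughly five flanking residues, was carried out in BL21 E. coli at 20 °C, with purification by glutathione affinity chromatography. Universal Agilent arrays made double-stranded by primer extension were incubated with the protein at 200 nM in PBS (pH 7.5), then scanned and quantified. All ungapped 8-mers were scored from probe intensities, and each received an enrichment E-score from the Universal PBM Analysis Suite, averaged over duplicate arrays.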

Row | Sequence | PBM E-score of 8-mer
1 | ACTACATG | -0.132 ± 0.059
2 | ATTTCATA | -0.115 ± 0.043
3 | GTCAGGCA | -0.0329 ± 0.013
4 | ACAAAGAG | 0.106 ± 0.056
5 | CAGTCGGC | -0.0473 ± 0.027
6 | CGGATACG | -0.144 ± 0.05
7 | ATCTACGG | -0.311 ± 0.013
8 | CAGTGATG | -0.0355 ± 0.029
9 | AAAAAATC | 0.0781 ± 0.012
10 | GGGGGGAC | -0.343 ± 0.021
11 | CCGCTGAG | -0.122 ± 0.0067
12 | ACTTGGAC | -0.1 ± 0.016
13 | ACCTTCTC | 0.0327 ± 0.019
14 | ACCTGCCG | 0.201 ± 0.033
15 | AGACATAG | -0.184 ± 0.0073
16 | TCAATGAA | -0.0588 ± 0.01
17 | ATTGCGCC | 0.122 ± 0.039
18 | AGCGGCTA | 0.0595 ± 0.043
19 | AGAACACA | 0.133 ± 0.0034
20 | AGGTTAGC | 0.0718 ± 0.021
21 | CTATGTGA | 0.204 ± 0.051
22 | CGAACATA | -0.0411 ± 0.028
23 | CAGTCAAG | -0.00898 ± 0.0034
24 | GGATCCCA | -0.177 ± 0.0037

Row | Sequence | PBM E-score of 8-mer
25 | GCACCTAC | 0.352 ± 0.025
26 | TAGACCAA | -0.0737 ± 0.039
27 | AGGAGTAC | -0.0172 ± 0.035
28 | AATTTTAT | -0.14 ± 0.1
29 | CACCATTC | 0.278 ± 0.027
30 | ACCAATGA | -0.0571 ± 0.11
31 | ATAGTTGG | -0.0867 ± 0.072
32 | AGTCCGAA | -0.0718 ± 0.043
33 | CCCAAGGG | 0.0395 ± 0.0075
34 | ACCGGGAC | -0.196 ± 0.011
35 | GTGACGAA | 0.338 ± 0.0048
36 | AATAAGAG | -0.0389 ± 0.007
37 | TGCGTAAA | 0.0514 ± 0.017
38 | TATGCTCA | 0.0361 ± 0.011
39 | ATGTCCAA | -0.344 ± 0.092
40 | CCTTGCAA | -0.019 ± 0.12
41 | GCTGTGAA | 0.4045 ± 0.0013
42 | ATTCAAAC | -0.113 ± 0.037
43 | ACGGGAGA | -0.238 ± 0.076
44 | ACAGGTTA | 0.257 ± 0.043
45 | CCCAACCA | -0.241 ± 0.01
46 | AGTAGTCG | -0.101 ± 0.0026
47 | GTTCACCA | 0.0816 ± 0.087
48 | AATTCATC | -0.1181 ± 0.00098

Row | Sequence | PBM E-score of 8-mer
49 | AGCCCCAG | -0.122 ± 0.02
50 | AATGAGCA | -0.121 ± 0.033
51 | GCGAAGAC | 0.248 ± 0.045
52 | CGTTCTTC | -0.0645 ± 0.052
53 | GAAAACCC | -0.145 ± 0.051
54 | CGGGCATC | -0.211 ± 0.035
55 | GATAATAA | 0.189 ± 0.022
56 | CGGAAGTA | -0.132 ± 0.06
57 | CCCCACCG | -0.0101 ± 0.049
58 | GATATTGC | 0.0365 ± 0.028
59 | GCCGAAGC | -0.173 ± 0.042
60 | AGGTGCCG | 0.421 ± 0.0055
61 | CCGTAGAG | -0.121 ± 0.054
62 | CGCTAAAC | 0.187 ± 0.1
63 | CAGTAAGC | -0.066 ± 0.02
64 | ATGCCCAG | -0.115 ± 0.06
65 | CCTTATTA | -0.0243 ± 0.021
66 | AAGGCATT | -0.129 ± 0.038
67 | AAAGGTGT | 0.469 ± 0.0063
68 | CAGGACTC | -0.29 ± 0.027
69 | CCCCAGAG | -0.111 ± 0.021
70 | ACCCACTC | -0.0674 ± 0.057
71 | AATTGACT | 0.00549 ± 0.0029
72 | ATCGGCCA | -0.177 ± 0.059

Row | Sequence | PBM E-score of 8-mer
73 | ACCAGCCA | -0.0622 ± 0.049
74 | CACGTACC | 0.122 ± 0.031
75 | GACGACGC | 0.0598 ± 0.1
76 | CGTGTCAC | 0.362 ± 0.034
77 | ATACGTCA | -0.0814 ± 0.086
78 | AGCGGTCG | -0.0441 ± 0.11
79 | AAACTTGC | 0.102 ± 0.0067
80 | ATGTTCTA | -0.201 ± 0.013
81 | ACCTCCCA | 0.177 ± 0.064
82 | GACTGACC | -0.206 ± 0.022
83 | ACCCACAA | -0.0411 ± 0.0025
84 | AGAGCAGC | -0.039 ± 0.051
85 | TCCATTCA | -0.0918 ± 0.027
86 | CAACTCGG | -0.0571 ± 0.15
87 | GACCAATA | -0.123 ± 0.0068
88 | AGTGCCAT | 0.128 ± 0.061
89 | GCACTAGC | 0.017 ± 0.027
90 | CCGCCCTC | -0.000765 ± 0.13
91 | GGCTGCTA | 0.0934 ± 0.049
92 | CCGTCGGA | -0.253 ± 0.025
93 | CAAGTTTC | 0.0674 ± 0.016
94 | ACCATGCT | 0.133 ± 0.029
